# Laboratory results reported in PubChem BioAssay AID624296 (National Center for Advancing Translational Sciences (NCATS), 2012).
# Among all 350,000 compounds or so, about 9,900 (2.8%) were called active. This list was built around the results that the source calls inconclusive (neither active nor inactive); the mix of calls is not that of the screen. The call rests on the fitted dose curve; in most records, active means well fitted activation curve with a large enough effect; inconclusive means small, poorly fitted or top-dose-only effect; inactive means no such curve, though single readings can be large or run the other way. Potencies of inconclusive entries are left out as doubtful fits.
# Assay: A quantitative high throughput screen for small molecules that induce DNA re-replication in MCF 10a normal breast cells. Further: nearly all actives have a fitted effect of over 50% in size. On activity, positive = re-replication: % of control where 0% means no effect.
# Conditions: MCF 10A DNA re-replication, Hoechst nuclear intensity, 48 h; activity, positive = re-replication: at 46.1 µM (top of the series)
# Potency means the concentration at half of the fitted maximal effect; tags describe the fitted curve by direction and shape.
Structure (SMILES),"activity, positive = re-replication",Potency
CC(C)(C)NC(=O)CSc1nc(O)cc(=O)n1-c1ccccc1F,inactive: -1.08%,–
COc1cc(C(C(=O)NC(C)(C)C)N(Cc2ccccc2)C(=O)c2cnccn2)cc(OC)c1OC (configuration not stated),–,"inconclusive [activator, full curve, poor fit]"
CN(C(=O)c1cccc(NC(=O)Cc2ccc(NC(=O)C3CCN(C(=O)c4ccccc4)CC3)cc2)c1)C1CCCCC1,–,"inconclusive [activator, partial curve, poor fit]"
Cc1ccnc(NC(=O)c2cccc(S(=O)(=O)N3CCCC3)c2)c1,inactive: -0.584%,–
CN(C1CCCCC1)S(=O)(=O)c1ccc(NC(=O)C2CCCCC2)cc1,–,"inconclusive [activator, single point]"
COc1ccc(N2C(=O)[C@@H]3[C@H](C2=O)[C@H]2c4ccccc4C=CN2[C@@H]3C(=O)Nc2ccccc2)cc1,–,"inconclusive [activator, partial curve, poor fit]"
O=C(CSCc1c(Cl)cccc1Cl)NCc1cccnc1,–,"inconclusive [activator, full curve, poor fit]"
CN(C)C=NC(=O)c1cc(C(=O)c2ccc(Cl)cc2)c[nH]1,–,"inconclusive [activator, partial curve, poor fit]"
Cc1ccc(-c2nc(Nc3cccc(O)c3)c3ccccc3n2)cc1,–,"inconclusive [activator, single point]"
O=C1NC(c2ccc(-c3ccccc3[N+](=O)[O-])o2)C(C(=O)c2ccc(Cl)cc2)C(O)(C(F)(F)F)N1 (configuration not stated),–,"inconclusive [activator, single point]"
CCOc1ccc(NC(=O)C2CCCN(S(=O)(=O)c3c(C)noc3C)C2)cc1 (configuration not stated),–,"inconclusive [activator, single point]"
Cc1ccc2c(c1)c1c(n2CC(O)Cn2nc(C)c(Br)c2C)CCCC1 (configuration not stated),–,active: 23.1 µM
CCC1C/C(=C\c2cc(OC)c(OC)cc2OC)C(=O)/C(=C/c2cc(OC)c(OC)cc2OC)C1 (configuration not stated),–,active: 4.61 µM
O=C(CCN1C(=O)/C(=C/c2ccccc2F)SC1=S)NCCCn1ccnc1,–,active: 20.6 µM
C=CCNC(=O)CN1C(=O)C2C3c4ccccc4C(c4ccccc43)C2C1=O (configuration not stated),inactive: -0.939%,–
CCN(CC)c1ccc(/C=N/NC(=O)c2c(-c3ccccc3)noc2C)cc1,–,"inconclusive [activator, single point]"
O=C1C2C3C=CC(C3)C2C(=O)N1c1ccc2c(c1)CCC2 (configuration not stated),inactive: -3.65%,–
COc1cc(CNC2CCCC2)cc(Cl)c1OCc1ccccc1Cl,–,active: 16.4 µM
COc1ccc(/C=N/N(C)C2=NS(=O)(=O)c3ccccc32)cc1OC,–,"inconclusive [activator, single point]"
CN(C)C(=O)c1ccc(NC(=O)COC(=O)C2=COCCO2)cc1,–,"inconclusive [activator, partial curve, poor fit]"
CCOC(=O)N1CCC(N2C(=O)c3ccccc3C2Nc2ccc3c(C)cc(=O)oc3c2)CC1 (configuration not stated),inactive: 1.54%,–

Structure (SMILES),"activity, positive = re-replication",Potency
CCN1c2ccccc2N(C)C1(C)c1ccccc1 (configuration not stated),–,"inconclusive [activator, single point]"
Cc1ccc(C(=O)c2c3ccc([N+](=O)[O-])cc3[n+]([O-])n2CCCN)cc1,–,"inconclusive [activator, partial curve, poor fit]"
Cc1ccc(-n2ncc(C(=O)N3CCN(C(=O)c4ccco4)CC3)c2C2CCN(C(=O)OC(C)(C)C)CC2)cc1C,inactive: 2.87%,–
COc1ccc(Br)c(C(=O)OCc2cc(=O)oc3cc(C)ccc23)c1,inactive: 1.78%,–
COc1ccc(C(=O)CCN2CCCCCC2)cc1,–,"inconclusive [activator, single point]"
Cc1ccc(-c2cc(C(F)(F)F)nc(SCC(=O)c3cccc([N+](=O)[O-])c3)n2)cc1,–,"inconclusive [activator, partial curve, poor fit]"
c1ccc(Cn2nnc3c(NCC4CCCO4)nc(C4CC4)nc32)cc1 (configuration not stated),–,"inconclusive [activator, partial curve, poor fit]"
COc1cc(C)c(CN2CCC(Cc3ccccc3)CC2)cc1C,–,"inconclusive [activator, single point]"
CCOC(=O)C1(Cc2ccccc2)CCN(Cc2cccn2-c2cccnc2)CC1,inactive: -3.5%,–
CCc1nc(C)cn1S(=O)(=O)c1cc([N+](=O)[O-])ccc1Cl,–,active: 6.51 µM
CN(C(=O)CSc1ncnc2sc3c(c12)CCC3)C1CCS(=O)(=O)C1 (configuration not stated),inactive: 17.7%,–
CC(C)OC(=O)c1ccc(NC(=O)Cn2c(-c3nonc3N)nc3ccccc32)cc1,–,"inconclusive [activator, full curve, poor fit]"
COc1ccc(/C=N/NC(=O)c2ccncc2)cc1COc1ccc(NC(C)=O)cc1,–,"inconclusive [activator, full curve, poor fit]"
COc1ccccc1CCc1nnc(CCC(=O)N(C)Cc2cccc3ncccc23)o1,–,"inconclusive [activator, partial curve, poor fit]"
CCOC(=O)c1nnn(-c2nonc2N)c1-c1ccc(C)cc1,inactive: -2.2%,–
Cc1ccc(C(=O)CC(SCC(=O)O)c2ccc([N+](=O)[O-])cc2)cc1 (configuration not stated),–,active: 18.4 µM
O=c1cc(N2CCCCC2)c(-c2ccccc2)nn1Cc1ccc(F)cc1,–,"inconclusive [activator, partial curve, poor fit]"
O=C(NCC(=O)N1CC(O)CC1C(=O)N1CCCC1C(=O)OCc1ccccc1)OCc1ccccc1 (configuration not stated),–,"inconclusive [activator, single point]"
Cc1ccc(OCCN2CCN(C(=O)CCC(=O)Nc3nnc(CC(C)C)s3)CC2)cc1,–,"inconclusive [activator, partial curve, poor fit]"
O=C1C=C(c2ccc(-c3ccccc3)cc2)C[C@@H](c2ccc3c(c2)OCO3)C1,inactive: 22.8%,–
O=C(CCn1c(=O)[nH]c2ccccc2c1=O)NCCSCc1ccccc1,inactive: 0.729%,–
